Results on one protein are retold here after publication PMC3318706 (The Journal of Biological Chemistry, 2012).

The data set deals with the molecule itself. Description: SEC.

The term stoichiometry N denotes a count of units in the complex or per binding partner.

B1: p97 R155C/N387C disulfide mutant (enzyme)
chain: not shown
modifications: disulfide bond between […] (non-reducing conditions)
In the case of B1, the “stoichiometry N” value was found to be 6.
